Inconclusive results, whose numbers are uncertain, are shown with a selection of clear calls. For part of these data: Where the call is inconclusive, the potency comes from a doubtful curve fit. Calls of active or inactive are those of the source. Unless noted, calls follow the shape of the dose curve; as a rule, active = well fitted curve in the direction sought with a large enough effect in the repeat runs; inconclusive = weak or mixed curves; inactive = no such curve, though single readings can be large; an effect the other way counts as inactive or inconclusive.
Experiments:
[1] = qHTS assay to identify small molecule antagonists of the estrogen related receptor signaling pathway with the pleiotropic PPARgamma coactivator (PGC) cell viability counter screen (AID 1224822; also: potency is read from the fitted curve at half-maximal effect;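 also: viability read after 17.5 h compound exposure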)
How it was run: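 Cytotoxicity in the PGC/ERR cell line is assessed with CellTiter-Fluor, read as fluorescence intensity 30 min after reagent addition, following 17.5 h compound treatment at 37 C.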

[2] = qHTS assay to identify small molecule agonists of the estrogen related receptor signaling pathway with the pleiotropic PPARgamma coactivator (PGC) (AID 1224823); also: potency is read from the fitted curve at half-maximal effect
How it was run: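 Luminescence from One-Glo reagent (30 min, room temperature) was read after 18 h compound treatment at 37 C of PGC/ERR cells plated 6 h beforehand; compounds delivered in DMSO by pin tool.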

[3] = qHTS assay to identify small molecule antagonists of the glucocorticoid receptor (GR) signaling pathway - cell viability counter screen (AID 720693); conditions: GR-bla HeLa viability, CellTiter-Glo luminescence, 18 h, with 5 nM dexamethasone present; viability change, negative = cytotoxic: at 58.5 µM (top of the series); also: potency is read from the fitted curve at half-maximal effect; nearly all actives have a fitted effect of over 55% in size
[4] = molecular target: Peroxisome proliferator-activated receptor gamma (Homo sapiens) (UniProt P37231); assay: qHTS assay to identify small molecule antagonists of the peroxisome proliferator-activated receptor gamma (PPARg) signaling pathway (AID 743191; calls by dose curve; also: nearly all actives have a fitted effect of over 30% in size); conditions: HEK293H PPARg-UAS-bla, beta-lactamase ratio, antagonist, 17 h; series mostly up to 62.6 µM
How it was run: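 Beta-lactamase reporter under UAS control in HEK293H PPARg-bla cells; compound treatment 17 h at 37C. Read-out: fluorescence intensity after 1 h room-temperature incubation with LiveBLAzer B/G FRET substrate.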

[5] = qHTS assay to identify small molecule antagonists of the peroxisome proliferator-activated receptor gamma (PPARg) signaling pathway - cell viability counter screen (AID 743194); conditions: PPARg-bla HEK293H viability, CellTiter-Glo luminescence, 17 h, co-treated with 50 nM rosiglitazone; series mostly up to 62.6 µM; also: nearly all actives have a fitted effect of over 55% in size
How it was run: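 Viability was measured as CellTiter-Glo luminescence in GeneBLAzer PPARg UAS-bla HEK293H cells. These cells had been exposed 17 h at 37 C to compounds together with rosiglitazone at 50 nM final, with the beta-lactamase readout taken in the same wells.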

[6] = qHTS assay to identify small molecule agonists of the constitutive androstane receptor (CAR) signaling pathway - cell viability counter screen (AID 1224836); also: nearly all actives have a fitted effect of over 45% in size; also: potency is read from the fitted curve at half-maximal effect
How it was run: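 HepG2-CYP2B6-hCAR, 2500 cells/well, 4 h pre-incubation; cpd 15 conc + PK11195 0.75 uM final; 23 h, 37 C/5% CO2; CellTiter-Fluor, fluorescence.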

[7] = qHTS assay to identify small molecule agonists of the progesterone receptor (PR) signaling pathway - cell viability counter screen (AID 1346799; calls by dose curve; also: nearly all actives have a fitted effect of over 45% in size)
How it was run: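 Luminescence from CellTiter-Glo, added after the beta-lactamase FRET read in the same wells, gave cytotoxicity in PR-UAS-bla HEK293T cells treated with compounds for 16 hr at 37C.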

[8] = molecular target: Cytochrome P450 2D6 (Homo sapiens) (UniProt P10635); assay: Cytochrome P450 Family 2 Subfamily D Member 6 (CYP2D6) small molecule antagonists: luciferase reporter qHTS assay (AID 1671196); also: nearly all actives have a fitted effect of over 50% in size; also: potency is read from the fitted curve at half-maximal effect
How it was run: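 Test chemicals meet CYP2D6 plus proluciferin substrate (10 min, RT); NADPH regenerating solution then drives turnover for 1 h. Detection reagent halts the reaction; luminescence measured after 20 min.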

[9] = molecular target: Cytochrome P450 1A2 (Homo sapiens) (UniProt P05177); assay: Cytochrome P450 Family 1 Subfamily A Member 2 (CYP1A2) small molecule antagonists: luciferase reporter qHTS assay (AID 1671199); also: nearly all actives have a fitted effect of over 50% in size; also: potency is read from the fitted curve at half-maximal effect
How it was run: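 Steps: enzyme-substrate mix dispensed; test compounds and furafylline control pinned in; 10 min room temperature; NADPH regeneration solution added, 1 h; reaction stopped with luciferin detection reagent; luminescence read after 20 min.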

[10] = qHTS assay to identify small molecule antagonists of the estrogen related receptor (ERR) signaling pathway from Tox21 library - cell viability counter screen (AID 1224834); also: nearly all actives have a fitted effect of over 30% in size
How it was run: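 Compounds in DMSO were pinned onto ERR cells that had been incubated for 6 h, and the plates were held at 37 C for 17.5 h. CellTiter-Fluor reagent was then added and fluorescence was measured after 30 min.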

[11] = qHTS RealTime-Glo MT Cell Viability Assay in HEK293 cells - 8 hour (AID 1224887); also: top concentration of the series differs between compounds; nearly all actives have a fitted effect of over 50% in size
How it was run: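 600 HEK293 cells per well, dispensed already mixed with RealTime-Glo MT reagents. Compound dosing came 5 h later. The same wells were read for luminescence at 0, 8, 16, 24, 32 and 40 h of exposure at 37 C.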

[12] = qHTS assay to identify small molecule antagonists of the sonic hedgehog signaling (Shh) pathway - cell viability counter screen (AID 1259367); also: nearly all actives have a fitted effect of over 55% in size
How it was run: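 Viability was read by CellTiter-Fluor fluorescence in the same wells, reagent added 23 hr into compound treatment and incubated 1 hr at 37C. The 3T3 Gli1-Luc reporter cells (2,000/well) received conditioned medium after compound and ran 24 hr.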

[13] = qHTS assay to identify small molecule agonists of the estrogen receptor beta (ER-beta) signaling pathway - cell viability counter screen (AID 1259380); also: nearly all actives have a fitted effect of over 30% in size
How it was run: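 Steps: plate ER-beta-UAS-bla HEK293T cells, rest 6 hr; add compounds in DMSO; incubate 16 hr at 37C, 5% CO2; add FRET substrate 2 hr; add CellTiter-Glo, wait 30 min at room temperature; read luminescence.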

[14] = molecular target: Cytochrome P450 3A4 (Homo sapiens) (UniProt P08684); assay: Cytochrome P450 Family 3 Subfamily A Member 4 (CYP3A4) small molecule antagonists: luciferase reporter qHTS assay (AID 1671201); also: potency is read from the fitted curve at half-maximal effect; nearly all actives have a fitted effect of over 50% in size
How it was run: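 Compounds in DMSO were pin-transferred onto CYP3A4 enzyme-substrate mix and held 10 min at room temperature. NADPH regenerating solution started the reaction for 1 h; luciferin detection reagent stopped it, and luminescence was read after 20 min.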

[15] = qHTS assay for small molecule disruptors of the mitochondrial membrane potential (AID 720635); conditions: HepG2 mitochondrial membrane potential, Mito-MPS dye ratio; series mostly up to 83.2 µM; also: potency is read from the fitted curve at half-maximal effect
How it was run: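 Mitochondrial membrane potential tracked with Mito-MPS dye, red aggregates (ex 540/em 590 nm) against green monomers (ex 490/em 535 nm). Compound treatment 1 hr at 37C, dye 30 min in HepG2.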

[16] = qHTS assay to identify small molecule antagonists of the estrogen receptor alpha (ER-alpha) signaling pathway - cell viability counter screen (AID 743074; calls by dose curve;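 also: HEK293 cells carrying ER-alpha-UAS-bla reporter stimulated with 17beta-estradiol; nearly all actives have a fitted effect of over 45% in size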)
[17] = qHTS assay to identify small molecule antagonists of the peroxisome proliferator-activated receptor delta (PPARd) signaling pathway - cell viability counter screen (AID 743213); conditions: PPARd-bla HEK293H viability, CellTiter-Glo luminescence, 17 h; viability change, negative = cytotoxic: at 62 µM (top of the series) unless noted; also: nearly all actives have a fitted effect of over 50% in size
How it was run: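 Viability counter-screen, qHTS format: PPARd-bla HEK293H, L165041 300 nM final, 17 h compound exposure at 37 C, CellTiter-Glo luminescence after 30 min RT.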

[18] = qHTS assay to identify small molecule agonists of the farnesoid-X-receptor (FXR) signaling pathway - cell viability counter screen (AID 743218); conditions: FXR-bla HEK293T viability, CellTiter-Glo luminescence, 16 h; viability change, negative = cytotoxic: at 62.6 µM (top of the series) unless noted; also: nearly all actives have a fitted effect of over 45% in size
How it was run: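 Viability of FXR-bla HEK 293T cells is measured by ATP-based CellTiter-Glo luminescence following 16 h compound treatment at 37 C and a prior 2 h room-temperature beta-lactamase substrate step.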

[19] = qHTS assay to identify small molecule agonists of the hypoxia (HIF-1) signaling pathway - cell viability counter screen (AID 1224844; calls by dose curve)
How it was run: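 Viability counter screen: HRE-bla ME-180 cells plated 5 hrs before compound addition, treated 17 hrs at 37C and 5% CO2, then CellTiter-Glo added after the FRET reporter read; luminescence after 30 min.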

[20] = molecular target: Estrogen receptor beta (Homo sapiens) (UniProt Q92731); assay: qHTS assay to identify small molecule antagonists of the estrogen receptor beta (ER-beta) signaling pathway (AID 1259378; active = well fitted inhibition curve with a large enough effect in the signal ratio in the repeat runs, not every such curve was filed as active; inconclusive = weak or mixed curves, or effect the other way; inactive = no such curve, though single readings can be large or run the other way; the % refers to the signal ratio); conditions: ER-beta-UAS-bla HEK293T, beta-lactamase FRET ratio, 16 h; activity, negative = inhibition: at 92.4 µM (top of the series) unless noted
How it was run: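 Antagonist mode: compounds added to beta-lactamase reporter HEK293T ER-beta-UAS cells stimulated with E2 (1nM final), 16 hr at 37C. LiveBLAzer B/G FRET substrate, 2 hours room temperature, fluorescence read-out.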

[21] = qHTS assay to identify small molecule agonists of the estrogen receptor alpha (ER-alpha) signaling pathway in the presence of an antagonist - cell viability counter screen (AID 1259386);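 also: cells exposed to compounds for 22 h at 37 °C before the viability read; nearly all actives have a fitted effect of over 30% in size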
How it was run: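 In this counter screen, compound effects on VM7Luc4E2 viability were tested in the presence of the antagonist ICI-182,780 at 10.0nM final. Compounds were dosed at 15 concentrations, exposure lasted 22hr, and the CellTiter-Fluor signal was read.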

[22] = molecular target: Cytochrome P450 2C19 (Homo sapiens) (UniProt P33261); assay: Cytochrome P450 Family 2 Subfamily C Member 19 (CYP2C19) small molecule antagonists: luciferase reporter qHTS assay (AID 1671197); also: potency is read from the fitted curve at half-maximal effect; nearly all actives have a fitted effect of over 65% in size
How it was run: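 Inhibition of CYP2C19 was scored from loss of luminescence in a P450-Glo proluciferin substrate assay, NADPH-started and run 1 h at 37C, with ketoconazole as positive control.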

Measured: Potency
Tags tell the direction and shape of the fitted curve or compound fluorescence and quenching.

Sequence of UniProt P05177 (P05177 whole entry, looked up): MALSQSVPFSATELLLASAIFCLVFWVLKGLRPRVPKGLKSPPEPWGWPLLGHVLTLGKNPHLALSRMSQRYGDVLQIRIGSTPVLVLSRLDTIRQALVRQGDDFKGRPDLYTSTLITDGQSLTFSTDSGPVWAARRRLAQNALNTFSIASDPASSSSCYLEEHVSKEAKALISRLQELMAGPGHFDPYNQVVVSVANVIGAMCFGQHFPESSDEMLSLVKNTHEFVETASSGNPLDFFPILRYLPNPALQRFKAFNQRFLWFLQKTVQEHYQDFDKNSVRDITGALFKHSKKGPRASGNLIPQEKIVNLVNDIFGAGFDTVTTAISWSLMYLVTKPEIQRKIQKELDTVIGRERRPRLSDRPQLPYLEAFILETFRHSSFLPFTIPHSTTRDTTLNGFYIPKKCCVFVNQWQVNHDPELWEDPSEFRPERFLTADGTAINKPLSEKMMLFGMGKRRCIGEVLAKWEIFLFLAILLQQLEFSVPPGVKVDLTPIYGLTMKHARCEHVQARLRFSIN
Sequence of UniProt P10635 (P10635 whole entry, looked up): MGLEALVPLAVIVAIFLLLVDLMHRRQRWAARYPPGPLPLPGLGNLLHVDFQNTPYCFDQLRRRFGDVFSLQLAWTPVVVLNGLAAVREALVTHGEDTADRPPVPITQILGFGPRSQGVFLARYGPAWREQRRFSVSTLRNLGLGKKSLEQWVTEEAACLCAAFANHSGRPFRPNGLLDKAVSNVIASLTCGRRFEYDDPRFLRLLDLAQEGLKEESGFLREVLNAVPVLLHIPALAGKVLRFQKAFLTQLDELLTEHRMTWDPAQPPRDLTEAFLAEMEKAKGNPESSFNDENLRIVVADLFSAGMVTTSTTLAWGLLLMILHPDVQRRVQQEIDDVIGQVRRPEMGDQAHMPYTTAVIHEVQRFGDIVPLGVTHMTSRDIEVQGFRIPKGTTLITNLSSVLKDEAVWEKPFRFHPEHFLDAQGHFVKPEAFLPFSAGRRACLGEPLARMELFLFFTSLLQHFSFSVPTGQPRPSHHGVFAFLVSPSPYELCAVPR
Sequence of UniProt P08684 (P08684 whole entry, looked up): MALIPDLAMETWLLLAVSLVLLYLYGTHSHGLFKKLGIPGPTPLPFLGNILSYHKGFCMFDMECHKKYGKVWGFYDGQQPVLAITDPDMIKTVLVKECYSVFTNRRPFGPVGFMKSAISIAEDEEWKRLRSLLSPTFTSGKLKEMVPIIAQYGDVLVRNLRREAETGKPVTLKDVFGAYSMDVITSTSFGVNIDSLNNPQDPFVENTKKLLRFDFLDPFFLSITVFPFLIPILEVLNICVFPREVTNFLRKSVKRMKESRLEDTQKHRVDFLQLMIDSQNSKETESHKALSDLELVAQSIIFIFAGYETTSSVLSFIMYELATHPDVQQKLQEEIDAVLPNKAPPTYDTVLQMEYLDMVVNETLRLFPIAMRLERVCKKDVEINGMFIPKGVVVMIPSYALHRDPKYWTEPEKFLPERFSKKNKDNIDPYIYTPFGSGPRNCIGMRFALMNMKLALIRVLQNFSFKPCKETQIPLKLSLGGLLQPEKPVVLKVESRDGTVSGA
Sequence of UniProt P33261 (P33261 whole entry, looked up): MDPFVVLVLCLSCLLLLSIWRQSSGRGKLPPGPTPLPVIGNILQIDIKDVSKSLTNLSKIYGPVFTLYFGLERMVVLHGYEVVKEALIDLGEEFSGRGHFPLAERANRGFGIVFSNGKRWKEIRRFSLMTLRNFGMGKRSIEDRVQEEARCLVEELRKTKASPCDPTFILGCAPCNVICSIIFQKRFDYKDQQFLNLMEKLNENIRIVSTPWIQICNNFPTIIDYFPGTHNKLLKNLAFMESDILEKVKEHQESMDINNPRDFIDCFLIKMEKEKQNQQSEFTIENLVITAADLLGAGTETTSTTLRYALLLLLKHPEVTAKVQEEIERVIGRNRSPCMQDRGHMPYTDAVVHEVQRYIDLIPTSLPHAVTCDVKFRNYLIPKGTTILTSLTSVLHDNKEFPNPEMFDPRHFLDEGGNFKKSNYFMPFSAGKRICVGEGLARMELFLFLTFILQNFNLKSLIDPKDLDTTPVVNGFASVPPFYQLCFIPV
Sequence of UniProt Q92731 (Q92731 whole entry, looked up): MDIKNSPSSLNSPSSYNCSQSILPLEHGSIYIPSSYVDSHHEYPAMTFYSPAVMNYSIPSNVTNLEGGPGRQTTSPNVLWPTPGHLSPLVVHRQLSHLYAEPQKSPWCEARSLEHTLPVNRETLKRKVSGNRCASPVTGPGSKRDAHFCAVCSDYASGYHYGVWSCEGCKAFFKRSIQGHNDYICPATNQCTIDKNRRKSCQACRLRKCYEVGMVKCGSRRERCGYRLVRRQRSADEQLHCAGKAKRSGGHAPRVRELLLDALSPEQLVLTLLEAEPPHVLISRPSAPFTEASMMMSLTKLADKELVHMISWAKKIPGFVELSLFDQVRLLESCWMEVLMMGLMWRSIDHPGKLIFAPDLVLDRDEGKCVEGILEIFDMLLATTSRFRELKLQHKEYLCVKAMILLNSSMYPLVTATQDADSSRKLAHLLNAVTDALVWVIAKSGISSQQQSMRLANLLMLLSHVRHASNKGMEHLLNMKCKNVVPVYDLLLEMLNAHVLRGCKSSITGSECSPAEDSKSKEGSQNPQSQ
Sequence of UniProt P37231 (P37231 whole entry, looked up): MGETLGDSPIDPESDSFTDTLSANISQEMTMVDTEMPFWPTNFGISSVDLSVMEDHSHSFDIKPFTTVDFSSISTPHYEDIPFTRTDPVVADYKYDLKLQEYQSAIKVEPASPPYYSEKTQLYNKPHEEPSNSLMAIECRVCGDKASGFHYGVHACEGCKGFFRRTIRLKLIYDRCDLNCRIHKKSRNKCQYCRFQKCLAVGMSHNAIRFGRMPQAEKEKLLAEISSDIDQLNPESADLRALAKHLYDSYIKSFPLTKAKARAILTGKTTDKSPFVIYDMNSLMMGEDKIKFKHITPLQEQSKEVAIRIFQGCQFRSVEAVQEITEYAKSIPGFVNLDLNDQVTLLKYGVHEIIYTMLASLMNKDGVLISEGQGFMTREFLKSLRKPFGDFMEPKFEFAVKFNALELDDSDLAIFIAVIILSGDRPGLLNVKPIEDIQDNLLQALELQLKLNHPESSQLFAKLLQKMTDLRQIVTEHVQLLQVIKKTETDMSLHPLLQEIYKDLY

COc1ccc2c(c1)CCC1C2CC[C@@]2(C)C1CC[C@@H]2NCCCCCCN1C(=O)CCC1=O (some centres not stated)
inconclusive: [1] 33.5 µM [cytotoxic, single point] | [2] 31 µM [activator]

Nc1nnc(-c2cccc(Cl)c2Cl)c(N)n1
inactive: [4] | [5] | [1] | [7] | [9]
inconclusive: [3] 4.77 µM [rising, full curve, poor fit] | [6] 13.3 µM [cytotoxic, single point] | [8] 27.5 µM [inhibitor, partial curve]

OCCCc1cccnc1
inactive: [10] | [6] | [11] | [12] | [13]
active: [14] 15.9 µM

C[C@H]1[C@@H](c2ccccc2)NC(=O)N1C
inconclusive: [15] 2.45 µM [rising, single point] | [19] 55.3 µM [cytotoxic, single point] | [22] 89.9 µM [inhibitor, single point] | [9] 56.7 µM [inhibitor, partial curve]
inactive: [16] | [17] | [18] | [10] | [20] | [21] | [8]
